IFI data for 93 compounds are collected here from ChEMBL document CHEMBL1156829.

SMILES strings stand for the structures. “And” between values parts separate entries of the source, which are not always exact repeats. Equal values may be shown once. Over roughly 5,400 compounds, “IFI” has its median near 2; the highest 2% begin near 22. Some of the results follow.

The nature of this test: NOVARTIS: Inhibition Frequency Index (IFI) - the number of HTS assays where a compound showed > 50% inhibition/induction, expressed as a percentage of the number of assays in which the compound was tested. Type of test: functional.
For the compound `CCCCNCC(O)(c1ccc(Cl)cc1)c1ccc(Cl)cc1`, the IFI was found to be 1.27%.
For `CO[C@H](C(=O)[C@@H](O)[C@@H](C)O)[C@@H]1Cc2cc3cc(O[C@H]4C[C@@H](O[C@@H]5C[C@@H](O)[C@@H](O)[C@@H](C)O5)[C@@H](O)[C@H](C)O4)c(C)c(O)c3c(O)c2C(=O)[C@H]1O[C@H]1C[C@@H](O[C@H]2C[C@@H](O[C@H]3C[C@](C)(O)[C@@H](O)[C@H](C)O3)[C@H](O)[C@@H](C)O2)[C@H](O)[C@H](C)O1` the value was 9.38%.
As to `Cc1cc(NS(=O)(=O)c2ccc(NC(=O)c3ccc([N+](=O)[O-])cc3)cc2)no1`, the IFI worked out at 0%.
The result for `Cc1cc(Nc2cccc(Cl)c2)nc2ccc(NC(=O)c3cccnc3)cc12` reads 0%; that for `CC(=O)Nc1ccc2c(c1)C(=O)N(C(C(=O)NC1CCCCC1)c1ccc([N+](=O)[O-])cc1)[C@@H](c1ccccc1)C(=O)N2` (stereo partly drawn), 1.22%.
For the compound `CC(=O)NC1=NN(C(C)=O)C(C)(c2ccc([N+](=O)[O-])cc2)S1` (stereo not drawn), the IFI came out at 0%.
The result for `CC(C)Sc1nc2c(c(=O)n1Cc1ccco1)C1(CCCCC1)Cc1ccccc1-2` reads 0%; that for `COc1ccc2sc(Nc3nc(-c4ccccn4)cs3)nc2c1`, 11.1%.
The result for `COC(=O)N(C)C(C)(C)C(C)=NOC(=O)c1ccccc1` reads 0%; that for `Cc1cccc(NS(=O)(=O)c2ccc3[nH]c(=O)ccc3c2)c1C`, 0%.
The result for `COc1ccc2[nH]c3c(c2c1)CCNC3c1ccc(OC)c(CSc2nnc(-c3ccccc3)o2)c1` (stereo not drawn) reads 2.31%; that for `Cc1sc2nc(CN(C(=O)CCc3ccccc3)C3CCCCC3)[nH]c(=O)c2c1C`, 1.85%.
`CN1CCN(C(c2ccco2)c2sc3ncnn3c2O)CC1` (stereo not drawn) gave an IFI of 0%.
For `Cc1cccc(C)c1NC(=O)CN1C(=O)C(C)(C)Oc2ccc(C(=O)NC(C)(C)C)cc21` the value was 0%; for `COc1cc(/C=C2\SC(c3ccc(C)cc3)=NC2=O)cc(OC)c1OC`, 0%.
For `O=C(Nc1ccc(C2=NCCN2)cc1)c1ccc(NC(=O)c2ccc(C3=NCCN3)cc2)cc1` the value was 0%.
`CCN1C=Cc2ccccc2/C1=C\c1ccc2ccccc2[n+]1CC`: the IFI is 23.6%.
For `CCN(CC)CCN1C(=O)c2ccccc2NC1c1ccc(N(C)C)cc1` (stereo not drawn) the value was 5.26%; for `O=C(Nc1cccc(-c2csc(-c3ccccc3)n2)c1)c1cccs1`, 0%.
For `CC(C)[C@@H](CO)Nc1ccnc2c(-c3ccccc3F)cnn12` the value was 0%; for `Cc1cc(C)[n+]2nc(N)c3ccccc3c2n1`, 1.83%; for `Nc1nc(NCC2CCC(CNS(=O)(=O)c3cccc4ccccc34)CC2)nc2ccccc12` (stereo not drawn), 3.91%.
For `CC1(C)N=C(N)N=C(N)N1c1ccc(Oc2ccc(Cl)cc2)c(Cl)c1` the value was 10.6%; for `CCC(C(=O)N(C)CCCNc1ccnc2cc(Cl)ccc12)c1ccccc1` (stereo not drawn), 2.97%; for `CCN1/C(=C/c2ccc3ccccc3[n+]2CC)Sc2c1ccc1ccccc21`, 24.1% and 14.3%.
Regarding `CCCC[n+]1c(-c2ccccc2)cc(-c2ccccc2)cc1-c1ccccc1`, the IFI was found to be 17.5%.
For `COc1ccc(C2CC(=O)C3=C(C2)NC(C)=C(C(=O)OC2CCCC2)C3c2ccccc2Cl)cc1OC` (stereo not drawn) the value was 5.95%.
For `ClC12CC3CC(C1)CC(n1nnc4ccccc41)(C3)C2` the value was 1.47%; for `Cc1c(NC(=S)N2CCOCC2)c(=O)n(-c2ccccc2)n1C`, 0%; for `Cn1nc(C(=O)NCc2ccccc2)c2c1CCN(Cc1cccc(O)c1)C2`, 1.22%.
For `CCCCCCC1CCC(O)(C(C)(O)C(=O)NC2C(=O)N3NCCCC3C(=O)N(O)C(COC)C(=O)NCC(=O)N3NCCCC3C(=O)N(O)C(C)C(=O)OC2C)OC1C` (stereo not drawn) the value was 39.3%.
Turning to `Cc1nc(N2CCN(C)CC2)c2c(C)c(C(=O)NCCN(C)C)sc2n1`, the IFI worked out at 1.12%.
The result for `Cc1cc(C)n(-c2ccc(NC(=O)C3CCN(Cc4ccncc4)CC3)cc2)n1` reads 0%; that for `COc1ccc(CC(=O)N(CCCC(C)Nc2cc(OC)cc3cccnc23)Cc2ccc(OC)c(OC)c2)cc1` (stereo not drawn), 3.7%.
`c1cncc(-c2cc(N3CCc4ccccc4C3)nc(-c3ccncc3)n2)c1` displayed an IFI of 0%.
For `CC(C)NC(=O)N1CCN(C(=O)COC(c2cccs2)c2cccnc2Cl)CC1` (stereo not drawn) the value was 1.94%; for `COCCCNc1nc2cc(OC)c(OC)cc2c2nc(-c3ccccc3)nn12`, 0%; for `Cc1ccc2nc3c(c(Nc4ccc(N(C)C)cc4)c2c1)CCC3`, 1.06%.
As to `CCOC(=O)c1cccc(NC(=O)CC2C(=O)N(c3ccc(F)cc3)C(=O)N2CCC(C)C)c1` (stereo not drawn), the IFI worked out at 0%.
The result for `COc1ccc2c(C)nc(Nc3nc(C)cc(-c4ccccc4)n3)nc2c1` reads 0%.
The result for `NCCCCCCNc1ccnc2cc(Cl)ccc12` reads 1.91%; that for `CN(CCCNc1ccnc2cc(Cl)ccc12)S(=O)(=O)c1ccc([N+](=O)[O-])cc1`, 5.5%.
For `CCCCCCN(C(=O)c1ccc2c(c1)OCO2)C(CC)c1nc2ccccc2c(=O)n1-c1ccccc1OC` (stereo not drawn) the value was 0.971%; for `c1ccc2cc3c(NCCN4CCOCC4)ccnc3cc2c1`, 0%; for `CC1CC2(C)Oc3ccccc3CC2C(C)C1CNCCCN(C)C` (stereo not drawn), 9.23%.
Consider `O=C(N1CCN(c2ccc(C(F)(F)F)cc2[N+](=O)[O-])CC1)C(Cl)(Cl)Cl`, for which the IFI came to 0%.
`Oc1nc(-c2ccccn2)nc(C(F)(F)F)c1Br` gave an IFI of 8.77%.
The result for `Cc1cc(N2CCN(C3CCCCC3)CC2)n2c(nc3ccccc32)c1C#N` reads 2.88%; that for `O=[N+]([O-])c1cc(C(F)(F)F)ccc1N1CCCN(C(=S)Nc2ccccc2)CC1`, 3.36%.
For `Cc1c(Cc2ccccc2)sc(N=Cc2ccc(Br)s2)c1C(N)=O` the value was 5.56%; for `Cc1nn(C)cc1-c1nc2cnccn2c1NCC1CCCO1` (stereo not drawn), 0%.
For `Clc1ccc(OCc2nc3ccccc3n2CCc2ccccc2)cc1` the value was 6.25%; for `O=Cc1c(OCc2ccc(Cl)cc2Cl)ccc2ccccc12`, 5.63%.
Take `CCCCNC(=S)N(Cc1cccs1)Cc1cc2cc(C)ccc2[nH]c1=O`: the IFI stood at 1.82%.
The result for `CCOC(=O)C1(CC2CCCCO2)CCN(C(=O)Nc2cccc(SC)c2)CC1` (stereo not drawn) reads 0%; that for `O=S(=O)(NC1CCCC1)c1cccc2nonc12`, 0%.
For `CC[n+]1c(/C=C/C=C2\N(C)c3ccccc3C2(C)C)n(CCCOC(C)=O)c2ccccc21` the value was 14.3%; for `COc1cc2nc(CN(C)C(C)c3cccs3)nc(N3CCCC3)c2cc1OC` (stereo not drawn), 0%.
`O=C(Nc1cc(C(F)(F)F)cc(C(F)(F)F)c1)Nc1ccc2nnsc2c1` came in with an IFI of 12.8%.
For `CS[C@H]1SC[C@H]2C(=O)N(C)[C@@H](C(C)C)C(=O)OC[C@@H](NC(=O)c3cnc4ccccc4n3)C(=O)N[C@@H](C)C(=O)N(C)[C@@H]1C(=O)N(C)[C@@H](C(C)C)C(=O)OC[C@@H](NC(=O)c1cnc3ccccc3n1)C(=O)N[C@@H](C)C(=O)N2C` the value was 34.6%; for `CCOc1ccc(-n2c(=S)sc3c(=O)n(-c4ccc(C)cc4)c(SCC(=O)Nc4cc(OC)ccc4OC)nc32)cc1`, 0%.
`CN1CCc2c(sc3nc(SCC(=O)NCCc4ccccc4)n(-c4ccc(Cl)cc4)c(=O)c23)C1`: the IFI was determined as 12.5%.
For `COc1ccc(OC)c(CN2CCC3(CC2)CC3C(=O)NCCc2ccccc2OC)c1` (stereo not drawn) the value was 0%; for `CC(C)(C)CC(C)(C)Nc1c(-c2ccccc2OC(=O)c2ccco2)nc2ccccn12`, 4.76%.
The compound `Brc1ccc(-c2n(Cc3ccccc3)c3ccccc3[n+]2Cc2ccccc2)o1` yielded an IFI of 15.4%.
In turn, `CCOc1cc2c(cc1OCC)C(c1cc(OC)c(O)cc1Cl)NCC2` (stereo not drawn) registered an IFI of 0%.
Turning to `CCOc1ccc(-c2cn3c([n+]2Cc2ccccc2)SCCC3)cc1`, the IFI was 15.4%.
On to `O=C(Nc1cc(C(F)(F)F)cc(C(F)(F)F)c1)Nc1ccc(Cl)c(Cl)c1`, for which the IFI turned out to be 18.8%.
For `Cc1cc(C)c(NC(=S)N(CCCN2CCCCC2)Cc2cccs2)c(C)c1` the value was 0%.
The result for `COC(=O)c1ccc2c(=O)n(Cc3ccco3)c(SCC(=O)n3nc(N)cc3C)nc2c1` reads 0%.
`CCOCCCNC(=O)C1CCCN(S(=O)(=O)c2ccc(C)cc2)C1` (stereo not drawn): the IFI was determined as 6.76%.
The result for `CCCCCCN(C(=O)Nc1ccccc1OC)C(C)c1nc2ccccc2c(=O)n1-c1ccccc1OCC` (stereo not drawn) reads 2.78%; that for `CCOc1ccccc1-n1c(N)c(C(=O)Nc2ccc(F)cc2)sc1=S`, 0%.
For `CCOc1ccc(N2C(=O)c3ccccc3NC2(C)C)cc1` the value was 4.62%.
For `CCN(CC)CCCN(Cc1cc2cc(OC)ccc2[nH]c1=O)C(=S)Nc1cccc(Cl)c1` the value was 8.04%; for `CC[n+]1c(/C=C/c2ccc(OC)cc2)ccc2ccccc21`, 5.11%.
Take `Cc1ccc(COc2ccc3c(C#N)c4ccccn4c3c2)cc1`: the IFI was 7.29%.
For the compound `COc1ccccc1Cn1c(SCC(=O)Nc2cccc(C(F)(F)F)c2)nc2ccc(Br)cc2c1=O`, the IFI stood at 4.35%.
The result for `CC(=O)N1c2ccc([N+](=O)[O-])cc2C(C)(c2ccccc2)CC1(C)C` (stereo not drawn) reads 0%; that for `CCCC(C(=O)NCCC(C)C)N(C(=O)c1snc(C(N)=O)c1N)c1ccc(C(C)C)cc1` (stereo not drawn), 4.84%.
With `Cc1ccc(Nc2nc3nonc3nc2N(C)C)cc1Cl`, the IFI came to 0%.
For `COC(=O)c1ccc(C2C3=C(O)CC(c4ccc(C)cc4)CC3=Nc3ccccc3N2C(=O)c2cccs2)cc1` (stereo not drawn) the value was 4.88% and 0%; for `CCc1ccc(C(=O)N(CC(=O)Nc2cc(C(C)(C)C)nn2-c2ccc(Cl)c(Cl)c2)C(C)C)cc1`, 2.1%.
For `O=C(COc1ccccc1Cl)OCc1cc(=O)n2nc(C3CC3)sc2n1` the value was 0%; for `CCCCCCN(C(=O)c1cccc(F)c1)C(CC)c1nc2ccccc2c(=O)n1-c1ccccc1OC` (stereo not drawn), 2.73%.
The result for `CCCNC(=O)N1CCC2(CC1)CC(=O)c1cc(C)ccc1O2` reads 0%.
Compound `c1ccc(Cc2nc(NCc3ccc4c(c3)OCO4)c3c4c(sc3n2)CCCC4)cc1` displayed an IFI of 1.16%.
On to `Cc1cccc(NC(=O)C2C3C=CC4(O3)C2C(=O)N(CC2COc3ccccc3O2)C4C(=O)NC2CCCC(C)C2C)c1` (stereo not drawn), for which the IFI amounted to 0%.
The result for `Fc1ccc(CNc2ccnc3cc(Cl)ccc23)cc1` reads 6.33%; that for `O=C(Cc1cccs1)N1CCN(c2ccccn2)CC1`, 2.35%; that for `CN(C)c1ccc(/C=C/C(=O)NC(=O)c2ccccc2OC(=O)c2ccccc2)cc1`, 8.33%.
For `COc1cccc2c1OCC(C(=O)Nc1ccc(C)cc1)=C2` the value was 11.4%.
For `CCn1c(SCC(=O)Nc2ccc(OC)cc2)nc2ccsc2c1=O` the value was 0%.
